The molecules below were run against PRMT5/MEP50 Complex (Homo sapiens (Human), UniProt O14744) (assay: PRMT5 inhibition based on TR-FRET assay). Conditions: 32 nM PRMT5:MEP50, 50 nM Histone-H4 peptide, 1 μM SAM.
Format: biochemical
Text: PRMT5 Inhibition Based on TR-FRET Assay:
Protein arginine methyltransferase 5 (PRMT5) is a type II arginine methyltransferase that catalyze mono- and symmetric demethylation on arginine residues of histone or non-histone proteins in presence of S-adenosylmethionine (AdoMet or SAM) a cofactor responsible for donating the methyl group. PRMT5 is reported to be overexpressed in several human cancers. To identify compounds that inhibit the PRMT5 and decrease its activity, a TR-FRET based assay has been established. Time-resolved fluorescence resonance energy transfer (TR-FRET) HTS assays are homogeneous proximity assays where the interaction of two dye-labeled binding partners is detected by the energy transfer between a donor and an acceptor dye and the subsequent light emission by the acceptor dye. PRMT5 catalyzes Histone H4 peptide which is biotin tagged to the Lysine amino acid at carboxyl end, in presence of S-adenosyl-1-methionine (SAM) to methylate the peptide. The antibody specific to mono methylated H4 peptide (H4R3) with Ig conjugate binds to the methylated peptide, indirectly binding to the Europium lanthanide. SureLight Allophycocyanin-Streptavidin binds to the biotin tag of the peptide, therefore accepting the energy transferred from the Europium lanthanide. This energy transfer between Europium to SureLight Allophycocyanin is a direct measure of the activity/inhibition of the PRMT5 enzyme.
Assay buffer: 20 mM BICINE (pH 7.6), 25 mM NaCl, 2 mM DTT, 0.01% Tween-20 and 0.01% BSA.
The compound dilutions were prepared as 7.5% DMSO stock solutions in assay buffer. To 2 μL (7.5×) of test compound, 5 μL of PRMT5 enzyme prepared in assay buffer (Final concentration of 32 nM in 15 μL reaction volume) was added and allowed for 30 minutes pre-incubation time in a white polystyrene 384-well plate at room temperature. […] The plates were then read on Victor-3 with Excitation at 340 nm and Emissions collected at 615 and 665 nm in TR-FRET protocol. […]

Chain of UniProt O14744 (O14744 whole entry): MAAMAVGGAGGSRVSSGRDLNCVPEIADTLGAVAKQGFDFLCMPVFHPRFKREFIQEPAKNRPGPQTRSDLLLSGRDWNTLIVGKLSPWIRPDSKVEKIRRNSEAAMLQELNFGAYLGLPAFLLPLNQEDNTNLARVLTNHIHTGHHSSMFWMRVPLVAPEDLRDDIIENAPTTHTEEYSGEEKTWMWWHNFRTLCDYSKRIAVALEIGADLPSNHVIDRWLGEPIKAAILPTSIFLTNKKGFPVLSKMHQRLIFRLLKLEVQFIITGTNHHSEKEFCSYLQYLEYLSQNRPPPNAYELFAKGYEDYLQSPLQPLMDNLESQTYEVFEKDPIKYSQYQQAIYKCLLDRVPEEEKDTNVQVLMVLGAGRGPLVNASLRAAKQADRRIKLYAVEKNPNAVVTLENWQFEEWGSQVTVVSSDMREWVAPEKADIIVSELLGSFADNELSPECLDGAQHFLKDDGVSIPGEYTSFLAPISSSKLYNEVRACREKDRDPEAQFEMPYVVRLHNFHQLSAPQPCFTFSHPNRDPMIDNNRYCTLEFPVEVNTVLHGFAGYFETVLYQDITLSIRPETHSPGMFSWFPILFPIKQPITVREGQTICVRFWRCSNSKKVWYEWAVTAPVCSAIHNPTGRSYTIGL
Chain of UniProt O14744 (Q9BQA1 whole entry partner): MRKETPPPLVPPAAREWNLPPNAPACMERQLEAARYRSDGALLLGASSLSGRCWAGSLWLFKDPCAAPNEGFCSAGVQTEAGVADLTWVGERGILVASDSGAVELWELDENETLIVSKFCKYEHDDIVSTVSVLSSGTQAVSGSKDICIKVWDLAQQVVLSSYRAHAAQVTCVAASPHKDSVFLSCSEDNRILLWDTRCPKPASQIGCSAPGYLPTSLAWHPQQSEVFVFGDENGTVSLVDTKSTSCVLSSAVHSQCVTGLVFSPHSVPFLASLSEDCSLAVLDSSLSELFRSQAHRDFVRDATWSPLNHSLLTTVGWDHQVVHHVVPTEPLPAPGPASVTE

| SMILES | IC50 |
| --- | --- |
| CN(C)c1ccc(CN2CCN(CC(O)CN3CCc4ccccc4C3)C2=O)cc1 (stereo not drawn) [Example 3, 1-(3-(3,4-dihydroisoquinolin-2(1H)-yl)-2-hydroxypropyl)-3-(4-(dimethylamino)benzyl)imidazolidin-2-one] | 0.35 µM |
| CC1(C)CN(Cc2ccc(C#N)cc2)C(=O)N1CC(O)CN1CCc2ccccc2C1 (single isomer, unassigned) [Example 2a, 4-((3-(3-(3,4-dihydroisoquinolin-2(1H)-yl)-2-hydroxypropyl)-4,4-dimethyl-2-oxoimidazolidin-1-yl)methyl)benzonitrile] | 0.04 µM |
| CC1(C)CN(Cc2ccc(C#N)cc2)C(=O)N1CC(O)CN1CCc2ccccc2C1 (single isomer, unassigned) [Example 2b, 4-((3-(3-(3,4-dihydroisoquinolin-2(1H)-yl)-2-hydroxypropyl)-4,4-dimethyl-2-oxoimidazolidin-1-y1)methyl)benzonitrile] | 0.18 µM |

From patent US11365205B2 (Aurigene Discovery Technologies Limited, priority 2018, dated 2022)
